Data: the supplement of paper PMC8728848
The other results are listed elsewhere or left out.

Legend:
Assay in all cases: glycan array binding signal (z-score within array); higher = stronger binding
Conditions in all cases: glycan notation: IUPAC condensed, linker removed
[1] = molecular target: Man(a1-3)[Man(a1-6)]Man(a1-6)[Man(a1-2)Man(a1-3)]Man(b1-4)GlcNAc(b1-4)GlcNAc
Outline: (§1)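 The binding signal is a Z-score computed within each array and averaged over linkers. Arrays of the same protein sequence at different concentrations or buffers were also averaged together. Data originate from 3228 arrays in the Consortium for Functional Glycomics database, kept only where the protein sequence was available.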

[2] = molecular target: Man(a1-3)[Man(a1-6)]Man(a1-6)[Man(a1-3)]Man
Outline: as §1

[3] = molecular target: Man(a1-3)[Man(a1-6)]Man(a1-6)[Man(a1-3)]Man(b1-4)GlcNAc(b1-4)GlcNAc
Outline: as §1

[4] = molecular target: Man(a1-3)[Man(a1-6)]Man(b1-4)GlcNAc(b1-4)GlcNAc
Outline: as §1

[5] = molecular target: Man(a1-6)Man
Outline: as §1

[6] = molecular target: Man(b1-4)GlcNAc
Outline: as §1

[7] = molecular target: Neu5Ac(a2-3)Gal
Outline: as §1

[8] = molecular target: Neu5Ac(a2-3)Gal(b1-3)GalNAc
Outline: as §1

[9] = molecular target: Neu5Ac(a2-3)Gal(b1-3)GalNAc(b1-3)Gal(a1-4)Gal(b1-4)Glc
Outline: as §1

[10] = molecular target: Neu5Ac(a2-3)Gal(b1-3)GalNAc(b1-3)Gal(b1-4)GlcNAc
Outline: as §1

[11] = molecular target: Neu5Ac(a2-3)Gal(b1-3)GalNAc(b1-4)[Neu5Ac(a2-3)]Gal(b1-4)Glc
Outline: as §1

[12] = molecular target: Neu5Ac(a2-3)Gal(b1-3)GalNAc6S
Outline: as §1

[13] = molecular target: Neu5Ac(a2-3)Gal(b1-3)GlcNAc
Outline: as §1

[14] = molecular target: Neu5Ac(a2-3)Gal(b1-3)GlcNAc(b1-3)Gal(b1-3)GlcNAc
Outline: as §1

[15] = molecular target: Neu5Ac(a2-3)Gal(b1-3)GlcNAc6S
Outline: as §1

[16] = molecular target: Neu5Ac(a2-3)Gal(b1-3)[Fuc(a1-4)]GlcNAc
Outline: as §1

[17] = molecular target: Neu5Ac(a2-3)Gal(b1-3)[Fuc(a1-4)]GlcNAc(b1-3)Gal(b1-4)[Fuc(a1-3)]GlcNAc
Outline: as §1

[18] = molecular target: Neu5Ac(a2-3)Gal(b1-3)[Neu5Ac(a2-3)Gal(b1-4)]GlcNAc
Outline: as §1

[19] = molecular target: Neu5Ac(a2-3)Gal(b1-3)[Neu5Ac(a2-6)]GalNAc
Outline: as §1

[20] = molecular target: Neu5Ac(a2-3)Gal(b1-4)Glc
Outline: as §1

[21] = molecular target: Neu5Ac(a2-3)Gal(b1-4)GlcNAc
Outline: as §1

[22] = molecular target: Neu5Ac(a2-3)Gal(b1-4)GlcNAc(b1-2)Man(a1-3)[GlcNAc(b1-2)Man(b1-4)GlcNAc(b1-2)Man(a1-6)]Man(b1-4)GlcNAc(b1-4)GlcNAc
Outline: as §1

[23] = molecular target: Neu5Ac(a2-3)Gal(b1-4)GlcNAc(b1-2)Man(a1-3)[Neu5Ac(a2-6)Gal(b1-4)GlcNAc(b1-2)Man(a1-6)]Man(b1-4)GlcNAc(b1-4)GlcNAc
Outline: as §1

[24] = molecular target: Neu5Ac(a2-3)Gal(b1-4)GlcNAc(b1-3)Gal(b1-3)GlcNAc
Outline: as §1

[25] = molecular target: Neu5Ac(a2-3)Gal(b1-4)GlcNAc(b1-3)Gal(b1-4)GlcNAc
Outline: as §1

[26] = molecular target: Neu5Ac(a2-3)Gal(b1-4)GlcNAc(b1-3)Gal(b1-4)GlcNAc(b1-3)Gal(b1-4)GlcNAc
Outline: as §1

[27] = molecular target: Neu5Ac(a2-3)Gal(b1-4)GlcNAc(b1-3)Gal(b1-4)[Fuc(a1-3)]GlcNAc
Outline: as §1

[28] = molecular target: Neu5Ac(a2-3)Gal(b1-4)GlcNAc(b1-6)[Gal(b1-3)]GalNAc
Outline: as §1

[29] = molecular target: Neu5Ac(a2-3)Gal(b1-4)GlcNAc(b1-6)[Neu5Ac(a2-3)Gal(b1-3)]GalNAc
Outline: as §1

[30] = molecular target: Neu5Ac(a2-3)Gal(b1-4)GlcNAc6S
Outline: as §1

[31] = molecular target: Neu5Ac(a2-3)Gal(b1-4)[Fuc(a1-3)]GlcNAc
Outline: as §1

[32] = molecular target: Neu5Ac(a2-3)Gal(b1-4)[Fuc(a1-3)]GlcNAc(b1-3)Gal
Outline: as §1

[33] = molecular target: Neu5Ac(a2-3)Gal(b1-4)[Fuc(a1-3)]GlcNAc(b1-3)Gal(b1-4)GlcNAc
Outline: as §1

[34] = molecular target: Neu5Ac(a2-3)Gal(b1-4)[Fuc(a1-3)]GlcNAc(b1-3)Gal(b1-4)[Fuc(a1-3)]GlcNAc(b1-3)Gal(b1-4)[Fuc(a1-3)]GlcNAc
Outline: as §1

[35] = molecular target: Neu5Ac(a2-3)Gal(b1-4)[Fuc(a1-3)]GlcNAc(b1-6)[Gal(b1-3)]GalNAc
Outline: as §1

[36] = molecular target: Neu5Ac(a2-3)Gal(b1-4)[Fuc(a1-3)]GlcNAc6S
Outline: as §1

[37] = molecular target: Neu5Ac(a2-3)Gal6S(b1-4)GlcNAc
Outline: as §1

B1: CBM32-4 (Clostridium perfringens), P26831 (protein)
chain: MGSSHHHHHHSSGLVPRGSHMASVYEPSLVDAYVGDDGAKKAVDGDLKTRVKFLGAPSTGDTIVYDLGQEILVDNLKYVVLDTEVDHVRDGKIQLSLDGETWTDAINIGDGVENGVDDMFSTPLKNGYKHGNQSGGIVPIDSAYVEGDNLNQKARYVRILFTAPYRHRWTVINELMINNGEYIPTVNDPT
[1]
  glycan array binding signal (z-score): -0.14
[2]
  glycan array binding signal (z-score): -0.127
[3]
  glycan array binding signal (z-score): 0.1
[4]
  glycan array binding signal (z-score): -0.329
[5]
  glycan array binding signal (z-score): 0.796
[6]
  glycan array binding signal (z-score): -0.243
[7]
  glycan array binding signal (z-score): -0.214
[8]
  glycan array binding signal (z-score): -0.071
[9]
  glycan array binding signal (z-score): -0.509
[10]
  glycan array binding signal (z-score): -0.526
[11]
  glycan array binding signal (z-score): -0.441
[12]
  glycan array binding signal (z-score): 0.512
[13]
  glycan array binding signal (z-score): -0.422
[14]
  glycan array binding signal (z-score): -0.344
[15]
  glycan array binding signal (z-score): 0.564
[16]
  glycan array binding signal (z-score): -0.414
[17]
  glycan array binding signal (z-score): -0.427
[18]
  glycan array binding signal (z-score): -0.397
[19]
  glycan array binding signal (z-score): -0.265
[20]
  glycan array binding signal (z-score): -0.183
[21]
  glycan array binding signal (z-score): -0.421
[22]
  glycan array binding signal (z-score): -0.325
[23]
  glycan array binding signal (z-score): -0.306
[24]
  glycan array binding signal (z-score): -0.38
[25]
  glycan array binding signal (z-score): -0.287
[26]
  glycan array binding signal (z-score): -0.386
[27]
  glycan array binding signal (z-score): -0.514
[28]
  glycan array binding signal (z-score): -0.111
[29]
  glycan array binding signal (z-score): -0.387
[30]
  glycan array binding signal (z-score): -0.013
[31]
  glycan array binding signal (z-score): -0.394
[32]
  glycan array binding signal (z-score): -0.572
[33]
  glycan array binding signal (z-score): 0.105
[34]
  glycan array binding signal (z-score): -0.457
[35]
  glycan array binding signal (z-score): -0.201
[36]
  glycan array binding signal (z-score): -0.286
[37]
  glycan array binding signal (z-score): -0.009
